Results taken from the supplement of paper PMC4967469.
The IC50 comes from the fitted curve, where viability falls to half of the control; a fit beyond the top or the lowest dose is shown as a bound at that dose. AUC sums up the same curve from the lowest dose to the 256-fold higher top dose; values near 1 show little effect. For some of these results: Any top dose called inferred was derived from the fitted curves, not read from the paper.

Tests used:
Assay in all cases: Viability of human cancer cell lines after 72 h of drug (GDSC screen)
Temsirolimus = compound: CO[C@H]1C[C@@H]2CC[C@@H](C)[C@@](O)(O2)C(=O)C(=O)N2CCCC[C@H]2C(=O)O[C@H]([C@H](C)C[C@@H]2CC[C@@H](OC(=O)C(C)(CO)CO)[C@H](OC)C2)CC(=O)[C@H](C)/C=C(\C)[C@@H](O)[C@@H](OC)C(=O)[C@H](C)C[C@H](C)/C=C/C=C/C=C/1C [Temsirolimus]; conditions: top dose 0.2 µM
Protocol: (§1)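 Human cancer cell lines in 384-well plates, medium with 10% serum, drug for 72 h over a 256-fold dose range (nine 2-fold or five 4-fold steps up to the top dose). Adherent lines were fixed and stained with the nucleic acid dye Syto60, suspension lines read with resazurin; signal relative to control wells, capped at 0 and 100%. One two-parameter sigmoid per drug and line, fitted in a mixed model over all curves with the slope shared within a line.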

SL 0101-1 = compound: CC(=O)O[C@@H]1[C@@H](OC(C)=O)[C@@H](O)[C@H](Oc2c(-c3ccc(O)cc3)oc3cc(O)cc(O)c3c2=O)O[C@H]1C [SL 0101-1]; conditions: top dose 10 µM; top dose inferred
Protocol: as §1

XMD15-27 = compound: C=CC(=O)Nc1ccc(C(=O)c2sc(Nc3ccc(N4CCN(C)CC4)cc3OC)nc2N)cc1 [XMD15-27]; conditions: top dose 10.24 µM; top dose inferred
Protocol: as §1

Cell Line | AUC (Temsirolimus) | IC50 (Temsirolimus) | AUC (SL 0101-1) | IC50 (SL 0101-1) | AUC (XMD15-27) | IC50 (XMD15-27)
SCC90 (head and neck, adherent) | 0.932 | > 200 nM | 0.981 | > 10000 nM |  | 
NCI-H1581 (large cell lung carcinoma, semi-adherent) | 0.895 | > 200 nM |  |  | 0.977 | > 10200 nM
U-266 (myeloma, semi-adherent) | 0.703 | 57.9 nM | 0.975 | > 10000 nM |  | 
HSC-4 (head and neck, adherent) | 0.206 | 1.22 nM |  |  | 0.979 | > 10200 nM
PANC-08-13 (pancreas, adherent) | 0.855 | > 200 nM |  |  | 0.983 | > 10200 nM
NCI-H716 (large intestine, suspension) | 0.819 | 153 nM |  |  | 0.945 | > 10200 nM
EPLC-272H (lung squamous cell carcinoma, adherent) | 0.814 | 127 nM |  |  | 0.974 | > 10200 nM
MM1S (myeloma, suspension) | 0.566 | 18.8 nM | 0.968 | > 10000 nM |  | 
LS-123 (large intestine, adherent) | 0.933 | > 200 nM |  |  | 0.982 | > 10200 nM
NCI-H441 (lung adenocarcinoma, adherent) | 0.946 | > 200 nM |  |  | 0.981 | > 10200 nM
EHEB (lymphoid neoplasm, suspension) | 0.698 | 58.9 nM | 0.959 | > 10000 nM |  | 
LB647-SCLC (small cell lung carcinoma, semi-adherent) | 0.967 | > 200 nM | 0.927 | > 10000 nM |  | 
HCC202 (breast, adherent) | 0.973 | > 200 nM | 0.975 | > 10000 nM |  | 
PWR-1E (prostate, adherent) | 0.895 | > 200 nM | 0.986 | > 10000 nM |  | 
NCI-H1105 (small cell lung carcinoma, suspension) | 0.94 | > 200 nM | 0.988 | > 10000 nM |  | 
NCI-H292 (lung adenocarcinoma, adherent) | 0.494 | 12 nM |  |  | 0.952 | > 10200 nM
UM-UC-3 (bladder, adherent) | 0.606 | 23.9 nM |  |  | 0.973 | > 10200 nM
CML-T1 (chronic myeloid leukaemia, suspension) | 0.656 | 31.2 nM | 0.976 | > 10000 nM |  | 
Hep 3B2_1-7 (liver, adherent) | 0.734 | 58 nM |  |  | 0.987 | > 10200 nM
MS751 (cervix, adherent) | 0.936 | > 200 nM |  |  | 0.988 | > 10200 nM
GA-10 (Burkitt lymphoma, suspension) | 0.231 | 2.44 nM | 0.984 | > 10000 nM |  | 
NCI-H835 (lung carcinoid, suspension) | 0.961 | > 200 nM | 0.982 | > 10000 nM |  | 
Mewo (melanoma, adherent) | 0.669 | 40.7 nM |  |  | 0.984 | > 10200 nM

Cell Line | AUC (Temsirolimus) | IC50 (Temsirolimus) | AUC (SL 0101-1) | IC50 (SL 0101-1) | AUC (XMD15-27) | IC50 (XMD15-27)
Jurkat (T-cell leukaemia, suspension) | 0.965 | > 200 nM | 0.991 | > 10000 nM |  | 
UMC-11 (lung carcinoid, adherent) | 0.715 | 46.9 nM |  |  | 0.991 | > 10200 nM
RCH-ACV (B-cell leukaemia, suspension) | 0.741 | 52.4 nM | 0.992 | > 10000 nM |  | 
no-10 (glioma, adherent) | 0.98 | > 200 nM |  |  | 0.965 | > 10200 nM
STS-0421 (soft tissue, adherent) | 0.825 | 147 nM | 0.983 | > 10000 nM |  | 
M14 (melanoma, adherent) | 0.873 | > 200 nM |  |  | 0.986 | > 10200 nM
EFM-19 (breast, adherent) | 0.657 | 43 nM |  |  | 0.978 | > 10200 nM
SW1990 (pancreas, adherent) | 0.848 | 191 nM |  |  | 0.985 | > 10200 nM
NCI-H1666 (lung adenocarcinoma, semi-adherent) | 0.813 | 121 nM |  |  | 0.986 | > 10200 nM
MOLM-16 (acute myeloid leukaemia, suspension) | 0.858 | 133 nM | 0.974 | > 10000 nM |  | 
AN3-CA (endometrium, adherent) | 0.637 | 31.2 nM |  |  | 0.985 | > 10200 nM
BB65-RCC (kidney, adherent) | 0.421 | 7.36 nM |  |  | 0.983 | > 10200 nM
ATN-1 (T-cell lymphoblastic leukaemia, suspension) | 0.614 | 25.2 nM |  |  | 0.976 | > 10200 nM
A549 (lung adenocarcinoma, adherent) | 0.502 | 12.7 nM | 0.983 | > 10000 nM |  | 
CAKI-1 (kidney, adherent) | 0.697 | 59.4 nM |  |  | 0.974 | > 10200 nM
NCI-H2029 (small cell lung carcinoma, adherent) | 0.988 | > 200 nM |  |  | 0.992 | > 10200 nM
OCI-LY7 (B-cell lymphoma, suspension) | 0.112 | 1.34 nM | 0.983 | > 10000 nM |  | 
MKN7 (stomach, adherent) | 0.876 | > 200 nM | 0.982 | > 10000 nM |  | 
HCC2998 (large intestine, adherent) | 0.975 | > 200 nM |  |  | 0.988 | > 10200 nM
NCI-H508 (large intestine, semi-adherent) | 0.833 | > 200 nM | 0.902 | > 10000 nM |  | 
MHH-CALL-2 (B-cell leukaemia, suspension) | 0.887 | 123 nM | 0.995 | > 10000 nM |  | 
JHH-6 (liver, adherent) | 0.909 | > 200 nM |  |  | 0.986 | > 10200 nM
MEL-HO (melanoma, adherent) | 0.564 | 18.7 nM | 0.984 | > 10000 nM |  | 
